From article PMC7459111
Results are given in words; binding and its absence hold for the method and conditions named. Binding seen in cells or lysates may run through a third protein. Some results given as binding are weak or reduced against the parent protein; the word gives no strength. Values belong to the binder of their own block, whether it stands above or below them.

Sequences of proteins named here, by UniProt entry; tags and fusion partners are left off. Residues count along the entry.
UniProt Q03265, residues 44-553: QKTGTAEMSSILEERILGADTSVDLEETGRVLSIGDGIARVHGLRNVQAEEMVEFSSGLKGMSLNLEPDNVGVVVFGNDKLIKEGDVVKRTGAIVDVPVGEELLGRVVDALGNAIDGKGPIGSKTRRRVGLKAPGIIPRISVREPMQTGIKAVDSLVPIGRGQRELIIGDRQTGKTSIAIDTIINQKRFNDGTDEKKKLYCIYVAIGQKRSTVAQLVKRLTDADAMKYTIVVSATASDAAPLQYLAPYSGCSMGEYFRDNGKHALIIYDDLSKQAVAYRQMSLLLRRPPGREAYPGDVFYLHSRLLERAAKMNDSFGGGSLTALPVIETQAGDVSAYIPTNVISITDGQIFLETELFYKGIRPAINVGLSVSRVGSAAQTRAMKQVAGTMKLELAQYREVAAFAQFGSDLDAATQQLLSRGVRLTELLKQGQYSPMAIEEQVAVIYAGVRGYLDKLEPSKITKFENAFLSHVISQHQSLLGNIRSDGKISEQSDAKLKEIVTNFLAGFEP

How the values were obtained:
[1] = target: T1, regulator of G-protein signaling 12 (RGS12) (mouse (endogenous in mouse chondrocytes)) (UniProt Q8CGE9); assay: co-IP; cell lysates of mouse chondrocytes (NP-40 buffer) incubated with anti-RGS12 or control IgG, protein A/G beads; bound protein blotted with the OXPHOS antibodies
T1 sequence: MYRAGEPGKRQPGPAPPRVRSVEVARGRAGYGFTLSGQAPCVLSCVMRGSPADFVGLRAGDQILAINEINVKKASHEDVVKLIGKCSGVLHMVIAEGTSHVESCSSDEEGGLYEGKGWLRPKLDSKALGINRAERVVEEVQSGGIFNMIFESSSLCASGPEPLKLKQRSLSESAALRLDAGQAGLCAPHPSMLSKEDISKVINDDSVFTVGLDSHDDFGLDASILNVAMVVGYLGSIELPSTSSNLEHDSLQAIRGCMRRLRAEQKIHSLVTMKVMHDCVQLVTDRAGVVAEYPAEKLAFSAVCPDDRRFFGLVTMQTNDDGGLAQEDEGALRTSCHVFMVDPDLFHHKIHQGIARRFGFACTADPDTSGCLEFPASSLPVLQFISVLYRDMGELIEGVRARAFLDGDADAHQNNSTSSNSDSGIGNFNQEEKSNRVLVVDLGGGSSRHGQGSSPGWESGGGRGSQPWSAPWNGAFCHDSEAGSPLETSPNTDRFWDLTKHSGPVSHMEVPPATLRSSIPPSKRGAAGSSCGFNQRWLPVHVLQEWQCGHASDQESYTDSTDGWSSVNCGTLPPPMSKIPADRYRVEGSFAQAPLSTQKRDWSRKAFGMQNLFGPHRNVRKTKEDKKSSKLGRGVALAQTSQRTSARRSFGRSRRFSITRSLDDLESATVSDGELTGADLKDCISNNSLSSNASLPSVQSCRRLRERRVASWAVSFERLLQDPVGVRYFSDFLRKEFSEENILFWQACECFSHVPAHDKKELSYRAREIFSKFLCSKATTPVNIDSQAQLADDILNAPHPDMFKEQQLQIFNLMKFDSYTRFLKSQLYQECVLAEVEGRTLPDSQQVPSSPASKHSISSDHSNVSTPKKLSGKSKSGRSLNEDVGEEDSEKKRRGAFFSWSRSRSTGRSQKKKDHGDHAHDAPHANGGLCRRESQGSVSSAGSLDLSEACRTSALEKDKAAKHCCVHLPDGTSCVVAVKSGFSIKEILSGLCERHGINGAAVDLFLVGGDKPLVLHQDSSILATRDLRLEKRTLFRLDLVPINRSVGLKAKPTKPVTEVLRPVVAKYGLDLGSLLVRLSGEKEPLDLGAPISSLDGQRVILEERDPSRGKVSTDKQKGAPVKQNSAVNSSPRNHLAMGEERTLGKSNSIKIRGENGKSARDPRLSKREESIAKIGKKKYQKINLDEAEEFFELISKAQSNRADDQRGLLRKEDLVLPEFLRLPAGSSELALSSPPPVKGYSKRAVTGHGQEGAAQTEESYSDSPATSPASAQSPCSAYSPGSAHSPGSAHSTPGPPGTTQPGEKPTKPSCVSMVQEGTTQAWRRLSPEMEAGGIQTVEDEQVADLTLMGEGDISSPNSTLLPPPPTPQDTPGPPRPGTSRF

[2] = target: ATP Synthase F1 Subunit Alpha (ATP5A) (mouse (endogenous in mouse chondrocytes)) (UniProt Q03265); assay: co-IP; chondrocyte mitochondrial extracts incubated with antibody to ATP5A or a nonspecific isotype-matched IgG; immunoprecipitates probed for RGS12

binding [1]: no binding
B1: UQCRC2 (protein, UniProt Q9DB77 15-453)
chain: SLKVAPKVKTSAAPGGVPLQPQDLEFTKLPNGLVIASLENYAPLSRIGLFVKAGSRYEDSNNLGTSHLLRLASSLTTKGASSFKITRGIEAVGGKLSVTATRENMAYTVEGIRSDIEILMEFLLNVTTAPEFRRWEVAALRSQLKIDKAVAFQNSQTRIIENLHDVAYKNALANPLYCPDYRMGKITSEELHYFVQNHFTSARMALVGLGVSHSVLKQVAEQFLNMRGGLGLAGAKAKYRGGEIREQNGDNLVHAAIVAESAAIGNAEANAFSVLQHLLGAGPHIKRGNNTTSLLSQSVAKGSHQPFDVSAFNASYSDSGLFGIYTISQAAAAGEVINAAYNQVKAVAQGNLSSADVQAAKNKLKAGYLMSVETSEGFLSEIGSQALAAGSYMPPSTVLQQIDSVADADVVKAAKKFVSGKKSMAASGNLGHTPFLDEL

binding [1]: no binding
B2: SDHB (protein, UniProt Q9CQA3 31-282)
chain: AQTAAAAAPRIKKFAIYRWDPDKTGDKPRMQTYEVDLNKCGPMVLDALIKIKNEVDSTLTFRRSCREGICGSCAMNINGGNTLACTRRIDTDLSKVSKIYPLPHMYVIKDLVPDLSNFYAQYKSIEPYLKKKDESQEGKQQYLQSIEDREKLDGLYECILCACCSTSCPSYWWNGDKYLGPAVLMQAYRWMIDSRDDFTEERLAKLQDPFSVYRCHTIMNCTQTCPKGLNPGKAIAEIKKMMATYKEKRALA

binding [2]: binds
B3: regulator of G-protein signaling 12 (RGS12) (protein, UniProt Q8CGE9 1-1381)
chain: T1 sequence
